Measured values from paper PMC4336329 (PLoS ONE, 2015).
Out of some 310,000 compounds screened, about 2,200 (0.71%) showed an effect of 50% or more. Effects have a minus sign here. This is one part of the list.

The compounds below were run against human ether-à-go-go-related gene (hERG) potassium channel (human, UniProt Q12809) (assay: primary screen, population patch clamp on CHO cells stably expressing hERG).
Chain of human ether-à-go-go-related gene (hERG) potassium channel (Q12809 whole entry, looked up): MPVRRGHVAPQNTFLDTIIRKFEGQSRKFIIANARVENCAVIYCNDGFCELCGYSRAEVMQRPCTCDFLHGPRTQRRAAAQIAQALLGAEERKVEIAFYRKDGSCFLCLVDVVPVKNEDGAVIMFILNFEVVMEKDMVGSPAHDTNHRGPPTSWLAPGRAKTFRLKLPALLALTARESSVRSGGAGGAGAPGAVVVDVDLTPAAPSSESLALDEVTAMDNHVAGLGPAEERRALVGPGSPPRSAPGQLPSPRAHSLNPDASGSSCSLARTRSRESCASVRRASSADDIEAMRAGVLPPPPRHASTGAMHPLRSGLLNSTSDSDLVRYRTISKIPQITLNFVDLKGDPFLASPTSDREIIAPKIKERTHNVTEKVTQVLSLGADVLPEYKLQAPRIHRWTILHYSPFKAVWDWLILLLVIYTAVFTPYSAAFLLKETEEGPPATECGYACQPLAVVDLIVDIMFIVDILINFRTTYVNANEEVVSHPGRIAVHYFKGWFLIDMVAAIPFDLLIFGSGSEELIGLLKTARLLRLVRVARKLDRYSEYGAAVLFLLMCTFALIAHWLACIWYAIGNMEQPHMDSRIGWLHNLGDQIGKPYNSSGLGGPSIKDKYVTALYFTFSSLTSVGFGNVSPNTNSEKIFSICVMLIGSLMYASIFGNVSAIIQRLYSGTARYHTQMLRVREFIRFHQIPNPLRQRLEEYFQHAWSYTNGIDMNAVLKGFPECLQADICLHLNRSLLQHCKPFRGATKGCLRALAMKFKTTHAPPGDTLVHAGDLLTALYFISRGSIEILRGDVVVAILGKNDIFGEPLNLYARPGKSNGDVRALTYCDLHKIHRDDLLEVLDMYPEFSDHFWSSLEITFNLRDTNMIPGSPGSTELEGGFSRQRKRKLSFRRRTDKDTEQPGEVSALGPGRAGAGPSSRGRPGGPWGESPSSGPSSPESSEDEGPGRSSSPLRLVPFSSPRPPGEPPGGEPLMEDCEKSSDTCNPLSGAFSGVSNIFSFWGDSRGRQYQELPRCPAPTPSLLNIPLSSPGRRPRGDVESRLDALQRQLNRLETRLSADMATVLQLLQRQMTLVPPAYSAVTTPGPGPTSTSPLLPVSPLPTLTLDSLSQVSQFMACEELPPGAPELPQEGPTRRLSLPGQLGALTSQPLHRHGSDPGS

Question: With `CC(C)CCNC(=O)C1CCCN(S(=O)(=O)c2ccc(-n3cnnn3)cc2)C1` (centres unmarked) as the compound, how does the “hERG current change (%, negative = inhibition) at 1uM” value read?
Answer: 23%

Question: With `Cc1ccc(C2=NC(C)(C)N3C2C3c2ccc([N+](=O)[O-])cc2)cc1` (centres unmarked) as the compound, how does the “hERG current change (%, negative = inhibition) at 1uM” value read?
Answer: 8.22%

Question: `COc1c(O)c(=O)n2c3ccccc3c3ccnc1c32` was tested. Which “hERG current change (%, negative = inhibition) at 1uM” value did it give?
Answer: 11.2%

Question: `CCOc1cc(/C=N/n2c(C)nc3sc(C)c(C)c3c2=O)ccc1O` was tested. Which “hERG current change (%, negative = inhibition) at 1uM” value did it give?
Answer: 1.74%

Question: With `O=C(O)c1ccccc1/C=N/NC(=O)C1CCCCC1` as the compound, how does the “hERG current change (%, negative = inhibition) at 1uM” value read?
Answer: -4.05%

Question: `Cc1c(CCC(=O)NC2CC2)c(=O)oc2c(C)c(O)ccc12` was tested. Which “hERG current change (%, negative = inhibition) at 1uM” value did it give?
Answer: 22.9%

Question: With `COc1ccccc1N1CCN(C(=O)C2CC=CCC2C(=O)O)CC1` (centres unmarked) as the compound, how does the “hERG current change (%, negative = inhibition) at 1uM” value read?
Answer: 4.6%

Question: For `Cc1cc(C)c(NC(=O)CS(=O)CC(=O)N2CCN(c3ccccc3)CC2)c(C)c1` (centres unmarked), which “hERG current change (%, negative = inhibition) at 1uM” value is on record?
Answer: 5.61%

Question: How did the “hERG current change (%, negative = inhibition) at 1uM” value turn out when `CCOc1ccc(-c2c(C(=O)N/N=C/c3ccc(O)cc3)nnn2-c2nonc2N)cc1` was run?
Answer: 16.6%

Question: How did the “hERG current change (%, negative = inhibition) at 1uM” value turn out when `Cc1cccc(OCC(=O)N(Cc2ccco2)c2c(N)n(Cc3ccccc3)c(=O)[nH]c2=O)c1` was run?
Answer: 6.56%

Question: Which “hERG current change (%, negative = inhibition) at 1uM” value does the source give for `Cc1[nH]c2ccccc2c1C(c1ccccn1)N1CCCC1` (centres unmarked) here?
Answer: 6.13%

Question: Which “hERG current change (%, negative = inhibition) at 1uM” value does the source give for `O=C(O)c1cccnc1C(=O)N1CCc2c([nH]c3ccccc23)C1C(F)(F)F` (centres unmarked) here?
Answer: 7.35%

Question: With `CCSC1=NCCN1S(=O)(=O)c1ccc2ccccc2c1` as the compound, how does the “hERG current change (%, negative = inhibition) at 1uM” value read?
Answer: -0.891%

Question: With `Nc1nc(N2CCN(c3cccc(Cl)c3)CC2)n[nH]1` as the compound, how does the “hERG current change (%, negative = inhibition) at 1uM” value read?
Answer: 4.81%

Question: For `NC(=O)c1cc(S(=O)(=O)NCCc2ccc(S(N)(=O)=O)cc2)cs1`, which “hERG current change (%, negative = inhibition) at 1uM” value is on record?
Answer: 13.3%

Question: Which “hERG current change (%, negative = inhibition) at 1uM” value does the source give for `CCOC(=O)Cn1c(=N)n(CCOc2cccc(C)c2)c2ccccc21.Cl` here?
Answer: -18.2%

Question: `CCc1nonc1NC(=O)c1oc2cc(C)c(Cl)cc2c1C` was tested. Which “hERG current change (%, negative = inhibition) at 1uM” value did it give?
Answer: 12.6%

Question: How did the “hERG current change (%, negative = inhibition) at 1uM” value turn out when `CCOC(=O)C1CCN(C(=O)c2cc3cc(C)ccc3[nH]2)CC1` was run?
Answer: 11.8%

Question: How did the “hERG current change (%, negative = inhibition) at 1uM” value turn out when `CN1CCN(C(=O)c2cc(C(C)(C)C)cc(C(C)(C)C)c2)CC1` was run?
Answer: 14.3%

Question: Which “hERG current change (%, negative = inhibition) at 1uM” value does the source give for `COc1ccc(NC(=O)CCS(=O)(=O)c2ccccc2)c(OC)c1` here?
Answer: -4.42%

Question: `O=C(O)c1c2c(nc3ccc(Cl)cc13)CCC2` was tested. Which “hERG current change (%, negative = inhibition) at 1uM” value did it give?
Answer: 10.1%

Question: With `Clc1ccc(-c2nnnn2-c2ccc(Cl)cc2)cc1` as the compound, how does the “hERG current change (%, negative = inhibition) at 1uM” value read?
Answer: 15.1%

Question: Which “hERG current change (%, negative = inhibition) at 1uM” value does the source give for `CN[C@H](CC(=O)O)C(=O)O` here?
Answer: -6.08%

Question: Which “hERG current change (%, negative = inhibition) at 1uM” value does the source give for `COc1ccc(C)cc1NC(=O)Nc1ccc(C(=O)N2CCCC2)cc1` here?
Answer: -2.21%

Question: For `COc1ccc(OCc2nnc(SC3CCOC3=O)n2-c2ccccc2)cc1` (centres unmarked), which “hERG current change (%, negative = inhibition) at 1uM” value is on record?
Answer: 8.59%

Question: How did the “hERG current change (%, negative = inhibition) at 1uM” value turn out when `Oc1ccc(-c2cnc(-c3ccc(O)cc3)nc2)cc1` was run?
Answer: 11.7%

Question: Which “hERG current change (%, negative = inhibition) at 1uM” value does the source give for `Cc1ccc(S(=O)(=O)N/N=C(\c2ccccc2)c2cccnc2)cc1` here?
Answer: 9.69%

Question: For `CN1CCN(S(=O)(=O)c2ccc(NN)nc2)CC1`, which “hERG current change (%, negative = inhibition) at 1uM” value is on record?
Answer: -0.494%

Question: `CC(C(=O)NCCCn1ccnc1)(c1ccccc1)c1ccccc1.Cl` was tested. Which “hERG current change (%, negative = inhibition) at 1uM” value did it give?
Answer: -34.6%

Question: For `O=C(Nc1cccnc1)c1cc(-c2cc(Cl)ccc2O)n[nH]1`, which “hERG current change (%, negative = inhibition) at 1uM” value is on record?
Answer: 8.56%

Question: `Cc1ccccc1S(=O)(=O)Oc1ccc2ccc(O)cc2c1` was tested. Which “hERG current change (%, negative = inhibition) at 1uM” value did it give?
Answer: 12.1%

Question: Which “hERG current change (%, negative = inhibition) at 1uM” value does the source give for `CN(CCOC(=O)c1cccc(Br)c1)C(C)(C)C.Cl` here?
Answer: -5.54%

Question: How did the “hERG current change (%, negative = inhibition) at 1uM” value turn out when `O=C1N/C(=N\N=C\c2cccnc2)SC1Cc1ccc(SC(F)F)cc1` (centres unmarked) was run?
Answer: 6.93%

Question: How did the “hERG current change (%, negative = inhibition) at 1uM” value turn out when `CCOc1ccc(NC(=O)COC(=O)CCN2C(=O)C3CC=CCC3C2=O)cc1OCC` (centres unmarked) was run?
Answer: 2.34%

Question: Which “hERG current change (%, negative = inhibition) at 1uM” value does the source give for `CCOc1ccc(NC(=O)Nc2cnccn2)cc1` here?
Answer: 14.8%

Question: With `CCOC(=O)N1CCN(C(=O)c2c(Cl)cnn2C)CC1` as the compound, how does the “hERG current change (%, negative = inhibition) at 1uM” value read?
Answer: 2.48%

Question: How did the “hERG current change (%, negative = inhibition) at 1uM” value turn out when `C=CCN1CCN(C(c2ccc(Cl)cc2)c2nnnn2CCc2ccc(OC)c(OC)c2)CC1.Cl` (centres unmarked) was run?
Answer: -3.91%

Question: With `c1ccc(-c2nc3nonc3nc2-c2ccccc2)cc1` as the compound, how does the “hERG current change (%, negative = inhibition) at 1uM” value read?
Answer: -2.48%

Question: Which “hERG current change (%, negative = inhibition) at 1uM” value does the source give for `CN1CCN(C(CNC(=O)c2ccc(Br)o2)c2ccc(F)cc2)CC1` (centres unmarked) here?
Answer: 10.5%

Question: With `CCCCN(NC(C)=O)c1nc(Cl)nc(NC(C)C)n1` as the compound, how does the “hERG current change (%, negative = inhibition) at 1uM” value read?
Answer: 9.87%

Question: With `CCN(CCCNC(=O)CCCn1c(=O)[nH]c2ccccc2c1=O)c1cccc(C)c1` as the compound, how does the “hERG current change (%, negative = inhibition) at 1uM” value read?
Answer: 6.02%

Question: For `CCOC(=O)c1sc(NC(=O)CSc2nncs2)c(C(=O)OCC)c1C`, which “hERG current change (%, negative = inhibition) at 1uM” value is on record?
Answer: 4.41%

Question: `O=C(Nc1ccccc1-c1nnn(CC(=O)N2CCN(c3ccccc3)CC2)n1)c1cccs1` was tested. Which “hERG current change (%, negative = inhibition) at 1uM” value did it give?
Answer: 12.1%

Question: With `NC(=S)NC(=O)c1ccccc1` as the compound, how does the “hERG current change (%, negative = inhibition) at 1uM” value read?
Answer: 23.7%

Question: Which “hERG current change (%, negative = inhibition) at 1uM” value does the source give for `CC(=O)c1cccc(NC(=O)NCc2ccc3c(c2)OCO3)c1` here?
Answer: 9.36%

Question: How did the “hERG current change (%, negative = inhibition) at 1uM” value turn out when `CCCCC(=O)NCCc1cc2c(C)ccc(C)c2[nH]c1=O` was run?
Answer: 18.3%

Question: `Cn1c(=O)n(CCc2ccccc2)c(=O)c2c1nc1n2CCCN1c1ccccc1` was tested. Which “hERG current change (%, negative = inhibition) at 1uM” value did it give?
Answer: 6.5%

Question: `O=C(CN1CCc2ccccc2C1)NCc1ccco1` was tested. Which “hERG current change (%, negative = inhibition) at 1uM” value did it give?
Answer: -5.33%

Question: Which “hERG current change (%, negative = inhibition) at 1uM” value does the source give for `COc1ccc(C2C(C(=O)Nc3ccccc3OC)=C(C)Nc3nnnn32)c(OC)c1` (centres unmarked) here?
Answer: 7.88%

Question: How did the “hERG current change (%, negative = inhibition) at 1uM” value turn out when `COc1ccc(NC(=O)CN(C)C(C)C(=O)N2CCCCC2)cc1` (centres unmarked) was run?
Answer: 4.98%

Question: Which “hERG current change (%, negative = inhibition) at 1uM” value does the source give for `COc1ccc(OC)c(NC(=O)N2CCCC(CNS(=O)(=O)c3cccs3)C2)c1` (centres unmarked) here?
Answer: 9.48%

Question: How did the “hERG current change (%, negative = inhibition) at 1uM” value turn out when `Cc1ccc(Oc2ncccc2C(=O)NCC(=O)O)cc1` was run?
Answer: 15.1%

Question: Which “hERG current change (%, negative = inhibition) at 1uM” value does the source give for `Cc1nn(-c2ccccc2)c(C)c1/C=N/NC(=O)c1cc(C(C)(C)C)[nH]n1` here?
Answer: 2.45%

Question: `Oc1ccc(CN2CCCc3ccccc32)c2cccnc12` was tested. Which “hERG current change (%, negative = inhibition) at 1uM” value did it give?
Answer: -1.32%

Question: With `CCOC(=O)C1CCN(C(=O)Cn2ncc3c([nH]c4ccccc43)c2=O)CC1` as the compound, how does the “hERG current change (%, negative = inhibition) at 1uM” value read?
Answer: 9.23%

Question: Which “hERG current change (%, negative = inhibition) at 1uM” value does the source give for `Fc1c(F)c(F)c(SCn2cc(Br)cn2)c(F)c1F` here?
Answer: 8.39%

Question: How did the “hERG current change (%, negative = inhibition) at 1uM” value turn out when `COC(=O)c1sccc1NC(=O)c1csc2c1CCCC2` was run?
Answer: -0.863%

Question: Which “hERG current change (%, negative = inhibition) at 1uM” value does the source give for `O=C(CSc1nnc2c(n1)[nH]c1ccccc12)N1CCCCC1` here?
Answer: 5.14%

Question: For `O=C(c1ccc(CN2CCc3ccccc3C2)cc1)N1CCc2ccccc2C1`, which “hERG current change (%, negative = inhibition) at 1uM” value is on record?
Answer: 2%
